Screen size: about 150,000 compounds; about 540 (0.36%) showed an effect of 50% or more. Some of the results follow.
tested on: Plasmodium falciparum; test: Primary screen in NF54 nanoGlo assay, in single point, at 2uM, 72h; a lower Z score goes with more inhibition; format: functional, Erythrocyte; conditions: timepoint 72 hour

Q: For `Cc1cc(Cl)ccc1CNC[C@H](O)c1ccco1`, which “% Inhibition” value is on record?
A: -9%

Q: And the Z score?
A: 0.95

Q: Which results are given for `COc1ccc(C(=O)NCC(=O)N2CC[C@H](Oc3cccc(F)c3)C2)cc1`?
A: % Inhibition: -1%; Z score: 0.2

Q: How did the “% Inhibition” value turn out when `O=C(NCCc1cnn(-c2ccccc2)c1)c1cc(Cl)c[nH]1` was run?
A: -11%

Q: What about the Z score of the same compound?
A: 2.09

Q: What does the source list for `Cc1noc(C2CCC(NCc3sccc3C)C2)n1` (stereo not given)?
A: % Inhibition: -13%; Z score: 2.74

Q: How did the “% Inhibition” value turn out when `Cn1cnn(CCOc2cc(Cl)ccc2Cl)c1=O` was run?
A: -8%

Q: And the Z score?
A: 1.58

Q: What does the source list for `O=C(c1cc(F)ccc1F)N1CCC[C@H]1c1nc(-c2ccccc2)no1`?
A: % Inhibition: -7%; Z score: 0.8

Q: `CC(C)N1CCn2cc(S(=O)(=O)Nc3ccc(Cl)cc3)cc2C1=O` was tested. Which “% Inhibition” value did it give?
A: 4%

Q: And the Z score?
A: -0.63

Q: What does the source list for `O=C(c1ccon1)N1CCC[C@H](Cn2cc(-c3ccsc3)nn2)C1`?
A: % Inhibition: 5%; Z score: -0.69

Q: Which “% Inhibition” value does the source give for `COC[C@@H]1[C@H](C(=O)NCCCc2ccccc2)CCCN1Cc1ccccc1` here?
A: -21%

Q: What about the Z score of the same compound?
A: 2.42

Q: With `O=C1CC2CS(=O)(=O)CC2N1c1nc(-c2ccc(Cl)cc2)cs1` (stereo not given) as the compound, how does the “% Inhibition” value read?
A: -9%

Q: What about the Z score of the same compound?
A: 0.78

Q: `CCN(CC)CCN(CC(=O)N1CCCN(c2ccc(-c3cccc(OC)c3)nn2)CC1)C(=O)C1CCC1` was tested. Which “% Inhibition” value did it give?
A: -8%

Q: And the Z score?
A: 1.32

Q: Which results are given for `NCc1nccn1CCCc1ccccc1`?
A: % Inhibition: -5%; Z score: 0.65

Q: `c1ccc(C2CCC(N3CCN(Cc4ccco4)CC3)CC2)cc1` (stereo not given) was tested. Which “% Inhibition” value did it give?
A: 36%

Q: And the Z score?
A: -4.13

Q: For `CCC1CN(C(=O)C2CC(=O)N(CC3CC3)C2)CC1N1CCOCC1` (stereo not given), which “% Inhibition” value is on record?
A: -14%

Q: What about the Z score of the same compound?
A: 1.25

Q: Which results are given for `c1ccc(Nc2ccc(-n3ccnc3-c3cc4n(n3)CCCNC4)cn2)cc1`?
A: % Inhibition: 13%; Z score: -2.58

Q: `CCn1c(CC2CCN(C(=O)c3ccc(O)cc3)CC2)nn(C)c1=O` was tested. Which “% Inhibition” value did it give?
A: 4%

Q: What about the Z score of the same compound?
A: -0.7

Q: For `COc1c[nH]c(C(=O)NCc2nc(C)no2)cc1=O`, which “% Inhibition” value is on record?
A: -8%

Q: What about the Z score of the same compound?
A: 1

Q: Which “% Inhibition” value does the source give for `CN(C)c1cccc(NC(=O)NC2C3C4CCC(C4)C23)n1` (stereo not given) here?
A: 31%

Q: What about the Z score of the same compound?
A: -3.94

Q: For `O=C(C1CCC1)N1CCCc2cc(S(=O)(=O)N3CCc4ccccc43)ccc21`, which “% Inhibition” value is on record?
A: -10%

Q: And the Z score?
A: 1.23

Q: With `O[C@]1(CN2CCCC2)COCCN(Cc2ccc(C(F)(F)F)nc2)C1` as the compound, how does the “% Inhibition” value read?
A: -10%

Q: And the Z score?
A: 0.92

Q: What does the source list for `CCN1CN(C(=O)NCCc2ncc(C)s2)CC1=O`?
A: % Inhibition: -5%; Z score: 0.81

Q: Which results are given for `CCCNC(=O)Nc1nn(Cc2ccccc2)c2cccc(N3CCOCC3)c12`?
A: % Inhibition: -5%; Z score: 0.6

Q: How did the “% Inhibition” value turn out when `Cc1nonc1CC(=O)N[C@H]1CCOC[C@@H]1OCc1c(C)noc1C` was run?
A: -7%

Q: What about the Z score of the same compound?
A: 1.43

Q: `COc1ccc(NC(=O)Cn2c(-n3nc(C)cc3C)nc3c(c2=O)CCCC3)cc1OC` was tested. Which “% Inhibition” value did it give?
A: 0%

Q: And the Z score?
A: -0.06

Q: With `CN(C)S(=O)(=O)N1CC(Oc2nccs2)C1` as the compound, how does the “% Inhibition” value read?
A: -6%

Q: And the Z score?
A: 0.95

Q: Which “% Inhibition” value does the source give for `c1ccc2c(c1)NCCCC2NCC1COC2(CCOCC2)O1` (stereo not given) here?
A: -1%

Q: What about the Z score of the same compound?
A: 0.11

Q: For `Nc1cc(C(F)(F)F)ccc1NCCCC(=O)O`, which “% Inhibition” value is on record?
A: -3%

Q: What about the Z score of the same compound?
A: 0.48

Q: Which results are given for `Oc1cc(CN[C@H]2CC[C@H](O)CC2)nc2c(F)cccc12`?
A: % Inhibition: 5%; Z score: -0.73

Q: Which results are given for `CCNC(=O)c1cc(NC(=O)N2CCC(C(C)C)CC2)c(C)s1`?
A: % Inhibition: -4%; Z score: 0.55

Q: How did the “% Inhibition” value turn out when `O=C(Nc1ccccn1)[C@H]1CCCN(S(=O)(=O)c2c(F)cccc2F)C1` was run?
A: -12%

Q: What about the Z score of the same compound?
A: 2.17

Q: Which results are given for `CC(C)[C@@H](c1ccccc1)N(C(=O)c1cocn1)C(C)C`?
A: % Inhibition: -9%; Z score: 1.72

Q: `O=C(NC1CCCCCC1)[C@H]1CC[C@H](Cn2cnnn2)CC1` was tested. Which “% Inhibition” value did it give?
A: -11%

Q: And the Z score?
A: 1.61

Q: What does the source list for `Cc1ccc2nc(NCc3ccccc3Cl)c(-c3noc(C)n3)cc2c1`?
A: % Inhibition: 6%; Z score: -0.77

Q: Which “% Inhibition” value does the source give for `CCc1[nH]nc(C(=O)N(CC)Cc2nc(C(C)C)no2)c1C` here?
A: -13%

Q: What about the Z score of the same compound?
A: 1.28

Q: Which “% Inhibition” value does the source give for `Cc1nonc1C(=O)N(C)CCCNC(=O)C1CCC1` here?
A: 1%

Q: And the Z score?
A: -0.09

Q: With `Cn1nc(CN(Cc2ccco2)S(=O)(=O)c2ccc3c(c2)CCO3)cc1C1CC1` as the compound, how does the “% Inhibition” value read?
A: -10%

Q: What about the Z score of the same compound?
A: 1.95

Q: Which “% Inhibition” value does the source give for `COc1cc(OC)n(CC(=O)NCc2ccccc2C)n1` here?
A: -1%

Q: And the Z score?
A: 0.17

Q: For `CS(=O)(=O)N1CCC[C@H](Oc2ccncc2)C1`, which “% Inhibition” value is on record?
A: 11%

Q: What about the Z score of the same compound?
A: -1.52

Q: What does the source list for `COCCCN(CCOC)C(=O)Nc1ccc2oc(C3CC3)nc2c1`?
A: % Inhibition: -12%; Z score: 1.58

Q: What does the source list for `O=C(O)CCc1nc2ccccc2n1-c1ccc(C(F)(F)F)nc1`?
A: % Inhibition: -12%; Z score: 1.69

Q: Which results are given for `COc1ccc(CN2CCN(Cc3cc(C(C)C)[nH]n3)C[C@@H]2CCO)c(F)c1`?
A: % Inhibition: -4%; Z score: 0.41

Q: Which results are given for `N#Cc1cnn(-c2ccc(NC(=O)c3ccc(Oc4ccccc4)cc3)cc2)c1N`?
A: % Inhibition: -6%; Z score: 0.77

Q: How did the “% Inhibition” value turn out when `NC(=O)c1ccc(NC(Cc2ccccn2)[C@H]2C[C@H](O)C2)nc1` (stereo not given in full) was run?
A: -18%

Q: And the Z score?
A: 1.67

Q: Which results are given for `COc1ccc(CN2CCC(c3ccc4cccnc4n3)CC2)cn1`?
A: % Inhibition: -6%; Z score: 0.9

Q: `c1nc(N2CCC(COc3cc4c(nn3)CCC4)CC2)c2nc[nH]c2n1` was tested. Which “% Inhibition” value did it give?
A: -18%

Q: What about the Z score of the same compound?
A: 2.07

Q: With `Cc1cc(CNC(=O)c2cnc3n2CCCC3)ccc1Cl` as the compound, how does the “% Inhibition” value read?
A: 1%

Q: And the Z score?
A: -0.13

Q: `Cc1cc2cc(CNC(=O)CCC3CCCC3)ccc2n1C` was tested. Which “% Inhibition” value did it give?
A: 0%

Q: And the Z score?
A: 0.07

Q: `Cc1ccc(-c2csc(N3CCN(Cc4ccc5c(c4)OCO5)CC3)n2)cc1` was tested. Which “% Inhibition” value did it give?
A: 4%

Q: What about the Z score of the same compound?
A: -0.5

Q: `Cn1ccc(NC(=O)CN2C[C@]3(C)C[C@H]2CC(C)(C)C3)n1` was tested. Which “% Inhibition” value did it give?
A: 7%

Q: And the Z score?
A: -0.98

Q: What does the source list for `Cc1ccc(F)c(CN2CCc3nc(N4CCCC4)nc(Oc4ccccc4C)c3C2)c1`?
A: % Inhibition: -10%; Z score: 1.34

Q: `COc1ccc(F)c(NCc2csc(N(C(C)=O)C3CC3)n2)c1` was tested. Which “% Inhibition” value did it give?
A: 3%

Q: What about the Z score of the same compound?
A: -0.36

Q: What does the source list for `O=C(O)CC[C@H]1CCCN(C(=O)c2coc3ccccc23)C1`?
A: % Inhibition: 2%; Z score: -0.28

Q: How did the “% Inhibition” value turn out when `CCN(Cc1nc2ccccc2c(=O)[nH]1)C(=O)NC1CCCCCC1` was run?
A: -40%

Q: And the Z score?
A: 4.67

Q: With `CN(C(=O)c1cc2n(n1)CCCC2)[C@H](c1ccccc1)C(F)(F)F` as the compound, how does the “% Inhibition” value read?
A: 4%

Q: What about the Z score of the same compound?
A: -0.83

Q: What does the source list for `COc1ccc(-c2cn3cc(C)nc3n2C)cc1`?
A: % Inhibition: 42%; Z score: -5.45

Source: ChEMBL document CHEMBL4888484, “Replenishing the malaria drug discovery pipeline: Screening and hit evaluation of the MMV Hit Generation Library 1 (HGL1) against asexual blood stage Plasmodium falciparum ,using a nano luciferase reporter read-out” (2022)
